Read counts are not given, so values of variants with three or more changes are uncertain.
B1: LINE1-mini (parent)
chain: GGCAGAGCUCAACACAGCGUGGCAAAGUGGCUGUGGCUAGACUGCC

Variants of: B1
Assay: self-cleavage, relative activity (ratio to wild type); higher = more cleavage; in vitro, sequencing; the parent is a self-cleaving ribozyme

Variant | self-cleavage
A12C C15A G21C A26U C31U A39C U43G C46A | 0.01
A11U C15U G19C C23A | 0.15
A12C G21U C37G | 0
A12C A25C U38A A39U | 0.01
A12C G27A A39U | 0
A11U G22C C23G | 0.05
A11U A24C G36U | 0.01
A12G G22A U32A | 0.04
A12C A14C G21U U32C | 0.04
A12G A24G U38A | 0.03
A12G G21C C45U | 0.01
A12G A26G G27A | 0.01
A12U A25G U34A | 0.04
A11U G19C G21A U38G | 0.02
A12U A14U A16U U20G G22C G29A C46U | 0.03
A11U U38A U43C | 0.01
A12C G19A G27A G35A | 0.08
A12C G22U G29A A41G | 0.01
A12U A14C A16C | 0.16
A11U G29C G30U C31U | 0
A11U C23G G29C C31U G40A | 0
A12C G17A A41C C45G | 0.01
A12G A14C C18G U20A C37U | 0.11
A12C G19A G36U | 0.05

Variant | self-cleavage
A11U G27C A41U | 0.15
A12G G17A G27A C37U | 0.03
A12G G35U G40C | 0.01
A11U G19A G35C G40U C42G | 0.01
A12C A14G G21U | 0
A12G G19A G22U G33U U38G U43G | 0
A11U G17A G36U | 0
A12C A24C C37U | 0
A11U C15A C23U G33C | 0.01
A12C C31G G44C C45U | 0
A11U C15A A16G U20A U43C | 0.01
A12G G21A C23A A24G | 0.02
A12G G17A U28C U34A G35A | 0.04
A11U A24C G33U G44U C46U | 0.03
A11U C31G U34G C37A A39U | 0
A12C U38C U43C | 0.02
A12G U32G G35U | 0.29
A11U G33U G40U | 0.04
A11U G17U A25G U38A | 0.01
A12G G27C G35A A39U | 0
A12U A25C C42A C45U | 0.05
A12C A14C C23U G40U | 0.04
A12G G19A G29C G30U C37A | 0.02
A11U G22A G27A G30A | 0.04

Variant | self-cleavage
A11U G35U U38A | 0.04
A12C C15A C23G A41G | 0
A12G G19A C46A | 0.01
A12G C23U G30C C42A | 0
A12G A24C A26U A39G | 0.05
A12C G21U A25C U43G | 0
A11U G19U A26G | 0.17
A11U C23G C46A | 0.09
A12G A25U U28C | 0.02
A11U U32G G35A | 0
A12U A14G C15A | 0.03
A11U G21C A25G G30U G33A | 0
A12C G40C C45A | 0.01
A12U A14G C18U G22U G40A | 0
A11U C13A G27A C31A G35A C42A U43G | 0.01
A11U C37U G40A | 0.03
A12C G21C A25U C31A G33C A39U G44A | 0.04
A12U A16U C18U | 0
A11U G33C U38A C42A | 0.03
A12G C18U G21C U28G | 0.02
A12G C15G G29U G44U C45G | 0.02
A12C A26U G35A | 0.02
A11U G17U C45U | 0.04
A12G C15U G17U G22A U34C U38A | 0.03

Variant | self-cleavage
A12G A16C G40U | 0.09
A11U G17A C37U | 0.04
A11U C13U A24C G30A C46U | 0.01
A12C C13G G33C | 0.02
A11U A25G G30A C45U | 0
A11U A16G U20C C42G U43C | 0
A12G A16C G19C A24U G40A C42G | 0.08
A12G C31G U34G | 0.06
A11U C37A U38A U43C | 0.04
A11U G27A G29C | 0.03
A11U G27A G29U | 0.17
A11U G21C U34A C46A | 0.05
A11U G27A G35A | 0.02
A12C C13G G36U U43A | 0.01
A12G U32A U34C | 0.02
A12C G22U A24G U34G G35A | 0.01
A11U G30U G33U G35U C45U | 0.01
A12C A14G G30C C46U | 0.02
A12U A14C C45U | 0.04
A11U G21U C23U U32C A41G | 0.02
A12G C15A G17A G35C C37G U43C | 0
A12G C13A U32C A41U | 0.03
A11U C13G A25G | 0.04
A12C A24G G29U | 0.01

Variant | self-cleavage
A12U A14U C15A G17A G19C C23U G30U G44U | 0.01
A12G C13G U28C G36U U38C A41U | 0.26
A11U A14G U28G | 0
A12C C18A A26G G35A C42G C46G | 0.01
A12C G17C G19U | 0.09
A12C A24U A25U G29C C31G | 0.01
A12G C13A G21C G40C | 0.09
A12C C15U G40U C42A | 0.02
A11U G21U G22U A25C A26U G36U | 0
A11U A26U C31U | 0.12
A12G A26G C37U G40U | 0.06
A12G G29U C37U | 0.01
A12G A14C A25G C42G | 0.01
A12C A16G G17C G29A | 0.02
A11U G33U U43G C46U | 0
A12U A26G C42A | 0.04
A12G G19U G44C | 0.01
A11U G29U G40A C45A | 0.02
A12C U20A A25C A41C C46U | 0.01
A12G C18A G29A | 0.03
A12G C13U A26G U34G | 0.02
A12U A16C C42U | 0.02
A11U A14C C37A | 0
A12U A24G G30U | 2.1

Variant | self-cleavage
A11U G22U A24U | 0.01
A11U C13A C23U C31G | 0.01
A11U G29C C37A | 0
A11U U34C C42G | 0.02
A11U C18U G19U G22U U43C | 0
A11U G21C A24C A25C G40U | 0.01
A12G G29A G30C | 0.08
A11U G22C U34A | 0
A11U C13U C31A | 0.03
A12C G21U C42A | 0.01
A12G U28C G30U U38A A39U C42G | 0
A11U C23A U28A A39G G44U | 0
A12G G27U G35A | 0.03
A11U G30U C31A C37G | 0.02
A11U G17U U34A | 0.02
A12G A14G G17C | 0.01
A12C G22U C42U | 0.03
A12U A25U G35C | 0.03
A12G A16C G22U U28G C37U A41C C42A | 0.12
A11U C18U G21C | 0.14
A12G G19C C23U C42A | 0.04
A11U G30U G36U | 0.95
A12C C31U A39G C42G | 0
A12G U20C G30A G40C | 0.03

Variant | self-cleavage
A11U G22A A24U G44A | 0.08
A11U G17U G19U U34C C45A | 0.03
A11U G29U G40U | 0.52
A11U G29U G40A | 0.03
A12G A14G G27U C37G U38G | 0.02
A12G G21C U28C G29U G36A | 0.01
A12G C18U C23A A26G U28G G33A G36C | 0.02
A11U U32C A41C | 0.03
A12C G30U C42U | 0.03
A12C C13U A41C | 0
A12G G22A U28C | 0.02
A12G C18G C23A | 0
A12G G30C G40C | 0.04
A11U G21U A39U | 0.16
A12U A26G G29U | 0.76
A12G G29C G30C G35U | 0.03
A11U C13A A14C C37A G44A C46A | 0.01
A12C A25C U34A C46A | 0.01
A11U C23G C42U | 0.01
A12C A16C C18A A26C A39G | 0.01
A11U A24U U32G | 0
A12C G29U C31U A39G | 0.01
A11U C15U A26C G40U | 0.04

Reference: the RNAGym collection of RNA variant scans (doi:10.7554/elife.90254)
